Results as given in PubChem BioAssay AID1645886 (National Center for Advancing Translational Sciences (NCATS), 2021).
Values joined by “and” are separate entries in the source; they are usually repeats but may differ in a detail not shown here. Equal values may be shown once. The whole screen tested about 16,000 compounds, of which about 260 (1.6%) were called active. Inconclusive means that the source gave no clear call. Such entries were picked first, then a sample of the others. Calls follow the shape of the dose curve; as a rule, active = well fitted inhibition curve with a large enough effect; inconclusive = small, poorly fitted or top-dose-only effect; inactive = no such curve, though single readings can be large or run the other way. A potency beside an inconclusive call is a rough fit, not a confirmed value. More than one record can exist for a structure, and the calls need not agree.

Target: Rap guanine nucleotide exchange factor 4 (Homo sapiens) (UniProt Q8WZA2)
UniProt Q8WZA2, sequence (Q8WZA2 whole entry, looked up): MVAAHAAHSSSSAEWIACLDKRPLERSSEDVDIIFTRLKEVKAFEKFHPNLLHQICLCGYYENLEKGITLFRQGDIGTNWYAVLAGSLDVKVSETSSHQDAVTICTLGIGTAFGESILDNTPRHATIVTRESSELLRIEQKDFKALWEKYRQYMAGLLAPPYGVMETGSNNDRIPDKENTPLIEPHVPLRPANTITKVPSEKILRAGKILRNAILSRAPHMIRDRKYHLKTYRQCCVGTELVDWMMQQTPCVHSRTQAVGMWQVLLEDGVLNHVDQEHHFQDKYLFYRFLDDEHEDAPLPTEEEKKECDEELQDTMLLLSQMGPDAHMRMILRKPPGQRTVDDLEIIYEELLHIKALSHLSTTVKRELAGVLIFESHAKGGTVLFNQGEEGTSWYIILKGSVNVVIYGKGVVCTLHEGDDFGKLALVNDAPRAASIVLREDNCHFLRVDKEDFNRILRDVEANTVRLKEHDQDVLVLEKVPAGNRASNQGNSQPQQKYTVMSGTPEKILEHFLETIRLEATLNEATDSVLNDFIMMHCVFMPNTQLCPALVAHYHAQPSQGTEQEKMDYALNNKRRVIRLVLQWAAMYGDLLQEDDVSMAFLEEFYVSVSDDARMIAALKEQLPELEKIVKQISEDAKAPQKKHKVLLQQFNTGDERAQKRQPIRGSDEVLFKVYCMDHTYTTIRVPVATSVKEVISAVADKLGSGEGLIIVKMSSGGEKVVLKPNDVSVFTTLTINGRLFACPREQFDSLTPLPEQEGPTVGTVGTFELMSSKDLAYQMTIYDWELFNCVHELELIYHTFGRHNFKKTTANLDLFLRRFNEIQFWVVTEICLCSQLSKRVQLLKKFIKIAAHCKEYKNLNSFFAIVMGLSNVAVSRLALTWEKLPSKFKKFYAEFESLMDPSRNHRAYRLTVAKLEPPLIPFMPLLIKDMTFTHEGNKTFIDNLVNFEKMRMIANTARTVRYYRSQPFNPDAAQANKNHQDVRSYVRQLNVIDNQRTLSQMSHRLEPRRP
Assay: Validation qHTS for antagonist of cAMP-regulated guanine nucleotide exchange factor 4 (EPAC2); also: nearly all actives have a fitted effect of over 40% in size;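 as to activity, negative = inhibition: 100% = activation by cAMP agonist control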
Settings: EPAC2 Rap1B BODIPY-GDP exchange, fluorescence; activity, negative = inhibition: at 112 µM (top of the series)
In short: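 Fluorescent exchange read-out: 100 nM EPAC2 with 250 nM RAP1B–BODIPY-GDP and 50 uM GDP; BODIPY-GDP release lowers fluorescence. Read at 480/540 nm every 5 min for 30 min at room temperature; normalized to 6.5 mM cAMP.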
Potency is read from the fitted curve at half-maximal effect; tags tell the direction and shape of the fitted curve.

| Structure (SMILES) | Potency | activity, negative = inhibition |
| --- | --- | --- |
| O=C1CCN(CCc2ccccc2)CCN1CCSc1ccccc1 | inconclusive: 100 µM [inhibitor, single point] | – |
| O=C1CC[C@@H](C(=O)O)N1 | inconclusive: 89.1 µM [inhibitor, single point] | – |
| Cc1ccc(CN2CCOc3ccc(CN4CCN(CCO)CC4)cc3C2)s1 | inconclusive: 11.2 µM [inhibitor, full curve, poor fit] | – |
| Nc1[nH]nc2nc3ccccc3nc12 | inconclusive: 89.1 µM [inhibitor, partial curve, poor fit] | – |
| O=C(NCC1Cc2cccc(-c3nccs3)c2O1)c1ccnc(Cl)c1 (stereo not given) | inconclusive: 89.1 µM [inhibitor, single point] | – |
| COC(=O)[C@@]1(C)CCC[C@@]2(C)c3ccc(O)c(C(C)C)c3CCC21 (stereo not given in full) | inconclusive: 17.8 µM [inhibitor, partial curve] | – |
| c1coc(-c2ccccc2CN2CCOc3ccc(CN4CCOCC4)cc3C2)c1 | inconclusive: 39.8 µM [inhibitor, partial curve, poor fit] | – |
| O=C1CCN(Cc2cccn2-c2ccccn2)CCN1Cc1ccccc1C(F)(F)F | inconclusive: 25.1 µM [inhibitor, partial curve, poor fit] | – |
| CCc1ccc(CCOc2ccc(CC3SC(=O)NC3=O)cc2)nc1 (stereo not given) | inactive | – |
| CC#CCC(C)[C@H](O)/C=C/[C@@H]1[C@H]2c3cccc(CCCC(=O)O)c3O[C@H]2C[C@H]1O (stereo not given in full) | inactive | – |
| CC[n+]1c(/C=C/C=C2/N(C)c3ccccc3C2(C)C)sc2ccccc21 | inactive | – |
| Cc1ccc(CNc2nc(CN3CCCCC3c3cccnc3)nc3ccccc23)o1 (stereo not given) | inconclusive: 39.8 µM [inhibitor, single point] | – |
| Cc1c(Cl)cccc1Nc1ccccc1C(=O)O | inconclusive: 39.8 µM [inhibitor, full curve] | – |
| COc1ccccc1-c1nc(N(C)Cc2ccco2)c2ccccc2n1 | inconclusive: 50.1 µM [inhibitor, partial curve] | – |
| O=C(Nc1cc(C(=O)NC2CCOCC2)c2c(c1)ncn2C1CCCC1)c1ccccc1 | inconclusive: 79.4 µM [inhibitor, single point] | – |
| O=C1CC[C@H](O)CCN1CCSc1ccc(Br)cc1 | inconclusive: 70.8 µM [inhibitor, single point] | – |
| Cc1c(C(=O)N(C)C2CCOC2)cnn1-c1ncc2c(n1)-c1ccccc1CCC2 (stereo not given) | inconclusive: 89.1 µM [inhibitor, single point] | – |
| COc1ccccc1C(=O)N[C@@H]1c2ccccc2C2(CCN(Cc3cnn(C)c3C)CC2)[C@H]1O | inconclusive: 56.2 µM [inhibitor, single point] | – |
| NC(=O)Nc1ccc(/C=C2\C=Cc3ccccc32)cc1 | inconclusive: 44.7 µM [inhibitor, partial curve] | – |
| COc1cc(=O)n2c(c1C(=O)N(C)Cc1nccs1)CCN(Cc1ccc(Cl)cc1)CC2 | inconclusive: 1.41 µM [inhibitor, full curve, poor fit] | – |

| Structure (SMILES) | Potency | activity, negative = inhibition |
| --- | --- | --- |
| CC(=O)OC1CC2C(C)(C)C(O)CC[C@@]2(C)C2CC[C@@]3(C)C(c4ccoc4)OC(=O)C4OC43[C@]12C (stereo not given in full) | inconclusive: 28.2 µM [inhibitor, partial curve, poor fit] | – |
| OCCN1CCN(CCCN2c3ccccc3Sc3ccc(C(F)(F)F)cc32)CC1 | inconclusive: 1.12 µM [inhibitor, full curve, poor fit] and active: 50.1 µM and inconclusive: 11.2 µM [inhibitor, partial curve, poor fit] | – |
| C/C=C(\C)C(=O)OC1C(OC(=O)C2(C)OC2C)c2cc3ccc(=O)oc3cc2OC1(C)C (stereo not given) | inconclusive: 39.8 µM [inhibitor, partial curve] | – |
| COc1ccc(CN2CCOc3ccc(CN4CCC(O)(c5cccnc5)CC4)cc3C2)cc1OC | inconclusive: 3.55 µM [inhibitor, full curve, poor fit] | – |
| CC(C)C[C@@H](CO)N1CCN(Cc2ccc(O)cc2)CCC1=O | inconclusive: 100 µM [inhibitor, partial curve, poor fit] | – |
| COc1cccc(Nc2ncc3nc(CCc4ccccc4)c(=O)n(C4CC4)c3n2)c1 | inconclusive: 3.16 µM [inhibitor, full curve, poor fit] | – |
| Cc1ncc2c(c1CNC(=O)c1ccccc1F)CCN(C(=O)c1[nH]c3ccc(Cl)cc3c1C)C2 | inconclusive: 28.2 µM [inhibitor, partial curve, poor fit] | – |
| O=C1c2ccccc2C(=O)C1c1ccccc1 | inactive | – |
| CC(C)N=C(N)/N=C(\N)Nc1ccc(Cl)cc1 | inactive | – |
| O=C(Nc1ccccc1)N1CC[C@@]2(CCCN(C(=O)c3cc(C(F)(F)F)cc(C(F)(F)F)c3)C2)C1 | inconclusive: 20 µM [inhibitor, partial curve, poor fit] | – |
| Clc1ccc2c(c1)C(N1CCNCC1)=Nc1ccccc1O2 | inconclusive: 44.7 µM [inhibitor, partial curve] | – |
| CC(C)NC(=O)N1CC[C@@]2(CCCN(C(=O)c3ccco3)C2)C1 | inactive | – |
| CCC(=O)O[C@H]1CC[C@H]2[C@@H]3CCc4cc(O)ccc4[C@H]3CC[C@]12C | active: 50.1 µM | – |
| CC(C)C[C@H](NC(=O)[C@H](Cc1ccccc1)NC(=O)c1cnccn1)B(O)O | inactive | – |
| O=C([C@@H]1C[C@@H](Sc2nc3ccccc3[nH]2)CN1Cc1c(F)cccc1F)N1CCOCC1 | inactive | – |
| CCOC(=O)c1ccc(NC(=O)CN2CCCCC2)cc1 | inactive | – |
| CCCCN1CC[C@H]2C=CC[C@@H](C(=O)Nc3ccc(Cl)cc3Cl)[C@H]2C1=O | inconclusive: 79.4 µM [inhibitor, partial curve, poor fit] | – |
| O=C(NOCC1CC1)c1ccc(F)c(F)c1Nc1ccc(I)cc1Cl | inactive | – |
| CCOC(=O)N1CCC(=C2c3ccc(Cl)cc3CCc3cccnc32)CC1 | inconclusive: 70.8 µM [inhibitor, partial curve] and inconclusive: 56.2 µM [inhibitor, partial curve] | – |
| COc1ccccc1C(=O)N[C@@H]1c2ccccc2C2(CCN(Cc3nccs3)CC2)[C@H]1OC | inconclusive: 39.8 µM [inhibitor, single point] | – |

| Structure (SMILES) | Potency | activity, negative = inhibition |
| --- | --- | --- |
| CC#CCOC(=O)c1c(C)nc2sc3c(c2c1N)CC[C@@H](O)C3 | inconclusive: 126 µM [inhibitor, partial curve, poor fit] | – |
| COc1cccc(Cn2cc(-c3cccc(C(F)(F)F)c3)nn2)c1 | inconclusive: 79.4 µM [inhibitor, partial curve] | – |
| COc1cc(C(=O)OC(COCCC(C)C)CN2CCOCC2)cc(OC)c1OC (stereo not given) | inconclusive: 39.8 µM [inhibitor, single point] | – |
| CC1(C)C(OC(=O)CCC(=O)O)CC[C@]2(C)C1CC[C@@]1(C)C2C(=O)C=C2[C@@H]3C[C@@](C)(C(=O)O)CC[C@]3(C)CCC21C (stereo not given in full) | active: 3.98 µM | – |
| Cc1ncc2c(c1CNS(=O)(=O)N(C)C)CCN(C(=O)c1ccc(-c3ccc(F)cc3)cc1)C2 | inconclusive: 0.891 µM [inhibitor, full curve, poor fit] | – |
| O=S1(=O)CCO[C@H]2Cc3ccccc3[C@H]2N1Cc1ccc(Cl)cc1 | inconclusive: 56.2 µM [inhibitor, partial curve, poor fit] | – |
| CSc1nc(C(=O)N2CCOc3ccc(CN4CCN(Cc5ccccn5)CC4)cc3C2)cs1 | inconclusive: 20 µM [inhibitor, partial curve, poor fit] | – |
| CC(C)CN1CC[C@@]2(CCCN(C(=O)c3cc(C(F)(F)F)cc(C(F)(F)F)c3)C2)C1 | inconclusive: 89.1 µM [inhibitor, single point] | – |
| CCN(CC)CCNC(=O)c1ccc(NS(C)(=O)=O)cc1 | inconclusive: 11.2 µM [inhibitor, partial curve, poor fit] | – |
| CS(=O)(=O)N1CCC2(CC1)CN(c1cccc(-c3ccccc3)c1)C2 | inconclusive: 10 µM [inhibitor, partial curve, poor fit] | – |
| COc1cc2c(cc1OC)[C@@H]1CC(=O)[C@@H](CC(C)C)CN1CC2 | inconclusive: 89.1 µM [inhibitor, single point] | – |
| COc1cc(-c2c(OC)cccc2OC)cc2c1OCCN(Cc1cn[nH]c1-c1ccc(Cl)cc1)C2 | inactive | – |
| O=C1CC(c2ccccc2)Oc2ccccc21 (stereo not given) | inconclusive: 56.2 µM [inhibitor, partial curve, poor fit] | – |
| CCCCCC1C(=O)CCC1CC(=O)OC (stereo not given) | inconclusive: 3.98 µM [inhibitor, full curve] | – |
| CCCCCCCCCCCCCCCC(=O)O[C@H](CC(=O)O)C[N+](C)(C)C | inconclusive: 35.5 µM [inhibitor, partial curve, poor fit] | – |
| CCCCCCOC(=O)C1(O)CC2OC1(C)n1c3ccccc3c3c4c(c5c6ccccc6n2c5c31)C(=O)NC4 (stereo not given) | inconclusive: 8.91 µM [inhibitor, single point] | – |
| C=C(CC)C(=O)c1ccc(OCC(=O)O)c(Cl)c1Cl | inconclusive: 100 µM [inhibitor, partial curve, poor fit] | – |
| Cc1cnc(SCC2CCCO2)nc1C1CCCN(Cc2cc3c(cc2Cl)OCO3)C1 (stereo not given) | inactive | – |
| OCCCNCc1cc2cc3c(cc2nc1N1CCN(c2cccc(Cl)c2)CC1)OCO3 | – | inconclusive: -31.4% [inhibitor] |
| O=C(c1cc(C(F)(F)F)cc(C(F)(F)F)c1)N1CCC2(CC1)CN(Cc1ccncc1)C2 | inconclusive: 100 µM [inhibitor, single point] | – |
